The shares of active, inactive and inconclusive entries below differ from those in the screen. For some of these results: Potencies of inconclusive entries are doubtful fits and often do not repeat. Calls of active or inactive are those of the source. Unless noted, calls come from the whole dose curve; as a rule, active = well fitted curve in the direction sought with a large enough effect; inconclusive = small, poorly fitted or top-dose-only effect, or another doubt; inactive = no such curve, though single readings can be large; an effect the other way counts as inactive or inconclusive.
Experiments:
[1] = system: KB-3-1; experiment: Cytotoxic Profiling of Annotated Libraries Using Quantitative High-Throughput Screening (AID 1296008); conditions: Five cell lines viability, CellTiter-Glo ATP luminescence, 48-72 h; max response: active compounds read low; note: nearly all actives have a fitted effect of over 60% in size; note: potency is the fitted concentration of half-maximal effect; for max response: % is set by controls: 0 for no effect and ±100 for the full control effect
Method in brief: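 Cells exposed to compounds for 48 or 72 hr at 37 degrees Celsius. Viability read as ATP-coupled luminescence with CellTiter-Glo after 10 min at room temperature.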

[2] = system: CAOV3; experiment: Primary qHTS to identify gynecologic anti-cancer compounds using libraries of approved drugs and bioactive compounds (AID 1345084); conditions: Gynecologic cancer cell panel viability, ATPlite luminescence, 48 h; activity change, negative = cytotoxicity: at 57.5 µM (top of the series); note: nearly all actives have a fitted effect of over 55% in size; note: potency is the fitted concentration of half-maximal effect; for activity change, negative = cytotoxicity: % is set by controls: 0 for no effect and ±100 for the full control effect
Method in brief: (§1)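 Five-concentration response, 48 h; readout is ATP-driven luciferase luminescence.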

[3] = system: Es-2; experiment: as above; conditions: Gynecologic cancer cell panel viability, ATPlite luminescence, 48 h; series mostly up to 57.5 µM
Method in brief: as §1

[4] = system: SKOV3; experiment: as above; conditions: Gynecologic cancer cell panel viability, ATPlite luminescence, 48 h; series mostly up to 57.5 µM
Method in brief: as §1

[5] = P-glycoprotein substrates identified in KB-8-5-11 adenocarcinoma cell line, qHTS therapeutic library screen (AID 1346987); note: nearly all actives have a fitted effect of over 65% in size; note: potency is the fitted concentration of half-maximal effect
Method in brief: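 Compounds are pinned in dose-response onto KB-8-5-11 cells (500 cells/well, colchicine-free medium) and left 72 h at 37 degree C. CellTiter-Glo luminescence then yields AC50 values.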

[6] = molecular target: Cytochrome P450 2C9 (Homo sapiens) (UniProt P11712); experiment: Cytochrome P450 family 2 subfamily C member 9 (CYP2C9) small molecule antagonists: luciferase biochemical (cell-free) qHTS assay (AID 1645842; active = well fitted curve in the direction sought with a large enough effect in the repeat runs; inconclusive = weak or mixed curves; inactive = no such curve, though single readings can be large; an effect the other way counts as inactive or inconclusive)
Method in brief: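 P450-Glo CYP2C9 system: proluciferin substrate with enzyme in mix containing 0.4% BSA, 10 min at room temperature, then NADPH regeneration solution added and incubated 1 h at 37C. Detection reagent stopped reaction; luminescence read after 20 min as RLU.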

[7] = Primary qHTS for inhibitors of nuclear receptor binding SET domain protein 2 (NSD2) in an RCH-ACV wild type WT cells (2C) (AID 1645877); conditions: activity change, negative = cell killing: at 44.9 µM (top of the series) unless noted; note: potency is the fitted concentration of half-maximal effect; nearly all actives have a fitted effect of over 70% in size
[8] = system: C33A; experiment: Primary qHTS to identify gynecologic anti-cancer compounds using libraries of approved drugs and bioactive compounds (AID 1345084); conditions: Gynecologic cancer cell panel viability, ATPlite luminescence, 48 h; series mostly up to 57.5 µM; note: nearly all actives have a fitted effect of over 55% in size; note: potency is the fitted concentration of half-maximal effect; for activity change, negative = cytotoxicity: % is set by controls: 0 for no effect and ±100 for the full control effect
Method in brief: as §1

[9] = system: CASKI; experiment: as above; conditions: Gynecologic cancer cell panel viability, ATPlite luminescence, 48 h; series mostly up to 57.5 µM
Method in brief: as §1

[10] = system: Hek293T; experiment: as above; conditions: Gynecologic cancer cell panel viability, ATPlite luminescence, 48 h, control line for the selectivity index; activity change, negative = cytotoxicity: at 57.5 µM (top of the series) unless noted
Method in brief: as §1

[11] = system: JEG-3; experiment: as above; conditions: Gynecologic cancer cell panel viability, ATPlite luminescence, 48 h; series mostly up to 57.5 µM
Method in brief: as §1

[12] = system: OV90; experiment: as above; conditions: Gynecologic cancer cell panel viability, ATPlite luminescence, 48 h; series mostly up to 57.5 µM
Method in brief: as §1

[13] = system: PA-1; experiment: as above; conditions: Gynecologic cancer cell panel viability, ATPlite luminescence, 48 h; series mostly up to 57.5 µM
Method in brief: as §1

[14] = system: Tov112D; experiment: as above; conditions: Gynecologic cancer cell panel viability, ATPlite luminescence, 48 h; series mostly up to 57.5 µM
Method in brief: as §1

[15] = system: Zika virus NS2B-NS3 protease (unlinked complex); experiment: Primary screen GU Rhodamine qHTS for Zika virus inhibitors: Unlinked NS2B-NS3 protease assay (AID 1347159); note: nearly all actives have a fitted effect of over 60% in size; note: potency is the fitted concentration of half-maximal effect
Method in brief: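 Percent inhibition came from the 15-min rise in Rhodamine110 fluorescence (1.5 microM substrate, ~15% conversion), normalized to no-inhibitor and no-enzyme wells and Hill-fitted. Unlinked protease, 25 nM, pH 8.0 Tris buffer; compounds up to 114 microM, 15-min preincubation.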

[16] = system: Zika virus NS2B-NS3 protease (linked construct); experiment: Primary screen NINDS Rhodamine qHTS for Zika virus inhibitors (AID 1347160); conditions: activity change, negative = inhibition: at 57.1 µM (top of the series) unless noted; note: nearly all actives have a fitted effect of over 55% in size; note: potency is the fitted concentration of half-maximal effect
Method in brief: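 Rhodamine110-peptide cleavage (1.5 µM substrate) by 25 nM linked NS2B-NS3 enzyme at pH 8.0 (Tris, Tween 20), after 15 min RT preincubation with compounds; 15-min fluorescence change normalized to controls and Hill-fitted.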

[17] = system: Tov-21-G; experiment: Primary qHTS to identify gynecologic anti-cancer compounds using libraries of approved drugs and bioactive compounds (AID 1345084); conditions: Gynecologic cancer cell panel viability, ATPlite luminescence, 48 h; activity change, negative = cytotoxicity: at 57.5 µM (top of the series) unless noted; note: nearly all actives have a fitted effect of over 55% in size; note: potency is the fitted concentration of half-maximal effect; for activity change, negative = cytotoxicity: % is set by controls: 0 for no effect and ±100 for the full control effect
Method in brief: as §1

[18] = Primary qHTS for inhibitors of nuclear receptor binding SET domain protein 2 (NSD2) in an isogenic RCH-ACV NSD2 p.E1099K mutant (9B) (AID 1645876); note: potency is the fitted concentration of half-maximal effect; nearly all actives have a fitted effect of over 70% in size
[19] = system: Nanoluciferase (engineered Oplophorus gracilirostris luciferase); experiment: Primary Nanoluciferase (NLuc) qHTS assay for identification of artifact compounds. (AID 1845222); note: potency is the fitted concentration of half-maximal effect
Method in brief: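 Diluted conditioned medium from NLuc-expressing S16 cells treated with compounds for 15 min at room temperature, then Nano-Glo substrate added; luminescence read after 5 min. Percent inhibition versus no-enzyme and DMSO controls fitted to 4-parameter Hill equation.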

[20] = system: HeLa; experiment: Primary qHTS to identify gynecologic anti-cancer compounds using libraries of approved drugs and bioactive compounds (AID 1345084); conditions: Gynecologic cancer cell panel viability, ATPlite luminescence, 48 h; activity change, negative = cytotoxicity: at 57.5 µM (top of the series); note: nearly all actives have a fitted effect of over 55% in size; note: potency is the fitted concentration of half-maximal effect
Method in brief: as §1

[21] = qHTS to identify inhibitors of the type 1 interferon - major histocompatibility complex class I in skeletal muscle: primary screen against the NCATS Mechanism Interrogation Plate v5.0 (MIPE) Libary (AID 1347411); conditions: iHSKM cells + IFN-b, HiBiT-tagged MHC-I luminescence, 24 h; activity change, negative = inhibition: at 45.8 µM (top of the series); note: potency is the fitted concentration of half-maximal effect; nearly all actives have a fitted effect of over 65% in size
Method in brief: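 Luminescence from CRISPR HiBit-tagged endogenous HLA-B in human myoblasts reported MHC class I level after 24 h of IFN-beta (4 ng/ml) plus compound. Compounds ran as 11-point 1:3 series, top 46 uM final.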

[22] = molecular target: Luciferin 4-monooxygenase (Photinus pyralis) (UniProt P08659); experiment: Primary firefly luciferase (FLuc) qHTS assay for identification of artifact compounds. (AID 1845220); note: nearly all actives have a fitted effect of over 60% in size
Method in brief: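 D-luciferin and ATP (10 uM each, final) in Tris acetate buffer pH 7.6 were incubated with compounds for 15 min at room temperature. The reaction was started with 10 nM Photinus pyralis luciferase and luminescence read after 5 min. Percent inhibition was fitted to a 4-parameter Hill equation.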

[23] = molecular target: Glutathione peroxidase 1 (Homo sapiens) (UniProt P07203); experiment: Primary qHTS Assay for Inhibitors of Recombinant Selenoprotein Glutathione Peroxidase 1 (GPX1) (AID 1845191); conditions: activity, negative = inhibition: at 48.8 µM (top of the series); note: potency is the fitted concentration of half-maximal effect; nearly all actives have a fitted effect of over 65% in size
Method in brief: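 GR-coupled readout: NADPH consumption tracked by fluorescence, ex 340/em 450 nm, at t=0 and after 15 min at RT. Final mix 10 nM GPX1, 1 mM GSH, 0.5 mM CHP, 0.5 mM NADPH, 100 nM GR, 0.01% BSA, following 30 min enzyme–compound preincubation.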

[24] = Primary fluorescence-based thiol-reactive (MSTI) qHTS assay for identification of artifact compounds. (AID 1845221);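 note: potency is the fitted concentration of half-maximal effect; thiol-reactive compounds lower the probe fluorescence signal; nearly all actives have a fitted effect of over 65% in size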
Method in brief: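 In PBS pH 7.4 with 2% DMSO, each compound met 4 uM MSTI for one hour at ambient temperature, shielded from light, before fluorescence detection.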
Tags give direction and shape of the fitted curve.

UniProt P07203, sequence (P07203 whole entry, looked up): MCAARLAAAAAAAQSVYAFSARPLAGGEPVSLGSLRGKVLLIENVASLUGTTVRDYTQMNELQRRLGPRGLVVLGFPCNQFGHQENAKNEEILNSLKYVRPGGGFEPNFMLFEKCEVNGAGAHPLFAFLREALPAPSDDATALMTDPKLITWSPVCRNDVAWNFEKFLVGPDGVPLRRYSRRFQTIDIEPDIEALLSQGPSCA
UniProt P11712, sequence (P11712 whole entry, looked up): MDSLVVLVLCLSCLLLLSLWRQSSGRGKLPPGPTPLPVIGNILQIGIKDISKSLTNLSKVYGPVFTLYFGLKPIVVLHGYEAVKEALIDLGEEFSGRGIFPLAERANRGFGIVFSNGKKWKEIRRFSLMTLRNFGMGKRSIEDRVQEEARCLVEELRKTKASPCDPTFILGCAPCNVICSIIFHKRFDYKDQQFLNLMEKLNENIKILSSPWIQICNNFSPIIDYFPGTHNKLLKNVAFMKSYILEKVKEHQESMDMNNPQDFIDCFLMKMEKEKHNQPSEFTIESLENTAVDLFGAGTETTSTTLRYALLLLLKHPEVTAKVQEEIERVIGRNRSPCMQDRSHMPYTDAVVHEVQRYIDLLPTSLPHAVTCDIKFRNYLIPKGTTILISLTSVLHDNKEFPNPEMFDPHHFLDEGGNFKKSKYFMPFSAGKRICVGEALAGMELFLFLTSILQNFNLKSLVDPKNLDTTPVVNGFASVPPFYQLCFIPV

COc1c2c(c(C)c3c1C(=O)OC3)OC1(C)CC(O)C34OC(O)(CCC3(C)C1C2)OC4(C)C (configuration not stated)
inactive: max response [1] 7.14% | Potency [2] | Potency [3] | Potency [4]

CC(C)NCCCn1c(Sc2cc3c(cc2I)OCO3)nc2c(N)ncnc21
inconclusive: Potency [5] 0.58 µM [inhibitor, full curve] | Potency [6] 15.1 µM [inhibitor, partial curve] | Potency [1] 0.146 µM [inhibitor, full curve] | Potency [9] 1 µM [cytotoxic, full curve] | Potency [3] 0.891 µM [cytotoxic, full curve] | Potency [10] 0.501 µM [cytotoxic, full curve] | Potency [11] 2.51 µM [cytotoxic, full curve] | Potency [13] 0.562 µM [cytotoxic, full curve, poor fit]
active: Potency [7] 0.325 µM | Potency [8] 1.58 µM | Potency [2] 1.58 µM | Potency [12] 0.398 µM | Potency [4] 2 µM | Potency [14] 0.891 µM

Fc1ccc(-c2nc(C3CCNCC3)sc2-c2ccnc(NC3CC3)n2)cc1
inconclusive: Potency [1] 16.4 µM [inhibitor, single point] | Potency [2] 8.91 µM [cytotoxic, partial curve, poor fit] | Potency [9] 15.8 µM [cytotoxic, partial curve, poor fit] | Potency [3] 31.6 µM [cytotoxic, partial curve] | Potency [11] 39.8 µM [rising, single point] | Potency [13] 0.355 µM [rising, partial curve, poor fit] | Potency [4] 31.6 µM [cytotoxic, single point] | Potency [17] 4.47 µM [cytotoxic, full curve]
inactive: Potency [15] | Potency [16] | Potency [8]

Cc1ccc(S(=O)(=O)c2ccc([N+](=O)[O-])o2)cc1
inconclusive: Potency [19] 12 µM [inhibitor, partial curve, poor fit] | Potency [9] 28.2 µM [cytotoxic, single point] | Potency [20] 39.8 µM [cytotoxic, single point] | Potency [11] 35.5 µM [cytotoxic, single point] | Potency [12] 39.8 µM [cytotoxic, single point] | Potency [14] 35.5 µM [cytotoxic, single point]
active: Potency [18] 0.649 µM | Potency [1] 23.1 µM | Potency [8] 11.2 µM | Potency [2] 11.2 µM | Potency [3] 8.91 µM | Potency [10] 8.91 µM | Potency [4] 25.1 µM | Potency [17] 7.94 µM

Cn1ncc(Cl)c1-c1cc(C(=O)N[C@H](CN)Cc2ccc(F)c(F)c2)oc1Cl
active: Potency [18] 0.649 µM | Potency [8] 2.24 µM | Potency [9] 3.98 µM | Potency [12] 14.1 µM | Potency [4] 4.47 µM | Potency [17] 0.708 µM
inconclusive: Potency [1] 16.4 µM [inhibitor, single point] | Potency [10] 2.24 µM [cytotoxic, partial curve, poor fit] | Potency [13] 12.6 µM [cytotoxic, partial curve, poor fit] | Potency [14] 39.8 µM [cytotoxic, single point]

O=C(/C=C\n1cnc(-c2cc(C(F)(F)F)cc(C(F)(F)F)c2)n1)N1CC(F)(F)C1
inconclusive: Potency [15] 56.2 µM [inhibitor, partial curve, poor fit] | Potency [21] 3.3 µM [inhibitor, partial curve] | Potency [9] 39.8 µM [cytotoxic, single point] | Potency [11] 1.41 µM [cytotoxic, full curve, poor fit] | Potency [4] 22.4 µM [cytotoxic, partial curve, poor fit] | Potency [17] 4.47 µM [cytotoxic, full curve] | Potency [14] 2 µM [cytotoxic, full curve]
active: Potency [1] 7.31 µM | Potency [2] 2.82 µM | Potency [3] 3.16 µM | Potency [20] 17.8 µM | Potency [10] 1.58 µM | Potency [13] 1.41 µM
inactive: Potency [16] | Potency [22]

CC[C@@H](Nc1c(Nc2cccc(C(=O)N(C)C)c2O)c(=O)c1=O)c1cc(C(C)C)co1
inconclusive: Potency [16] 17.8 µM [inhibitor, partial curve, poor fit] | Potency [18] 16.3 µM [inhibitor, partial curve] | Potency [23] 25.5 µM [inhibitor, partial curve] | Potency [1] 29.1 µM [inhibitor, single point]
inactive: Potency [2] | Potency [9] | Potency [3] | Potency [12]
active: Potency [15] 22.4 µM | Potency [24] 2.38 µM

CC1(C)CCC2(C(=O)O)C(O)CC3(C)C(=CCC4C5(C)CCC(OC6OC(CO)C(O)C(O)C6OC6OC(CO)C(O)C(O)C6OC6OCC(O)(CO)C6O)C(C)(C)C5CCC43C)C2C1 (configuration not stated)
inconclusive: Potency [20] 0.708 µM
inactive: outcome [5] inactive [at 9.29 µM] | outcome [1] | activity change, negative = cytotoxicity [8] -3% [at 11.6 µM]
